Test results reported in the supplement of paper PMC11417369.
The list shows a part of the results.

Tested on: PfHDP1 homeodomain (GST-tagged)
Experiment: gcPBM binding intensity (ln(normalized median fluorescence intensity)); higher = stronger DNA binding
Procedure, shortened: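 The binding buffer was 1× PBS containing 1% milk, 0.2 mg/ml BSA, 0.5% salmon testes DNA and 0.03% Triton X-100. In it, GST-tagged P. falciparum DNA-binding domains expressed in E. coli were applied for 1 h to an Agilent 4 × 180k array of primer-extended double-stranded 36-bp intergenic genomic probes plus negative controls. Binding intensity, read with Alexa488 anti-GST antibody and a 488 nm scan, is the highest Masliner-normalised natural-log median intensity across replicate spots of either probe orientation.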

| Sequence | gcPBM binding intensity (ln) |
| --- | --- |
| TTTATTTTTCATTGGGGTACACAAGTTTATTTTATT [XGTACX_site4263] | 7.23 |
| CCATAATTATATGCCAGTACATATTTGTAACAAAAA [XGTACX_site851] | 6.7 |
| TAAGTAATAGTTTGTGCACACTCAAGTATATCATAT [CACACA_site4035] | 11.1 |
| CAAAATATTTTTATAACACACATATATAGAATGTGC [CACACA_site1145] | 6.34 |
| TATTTTTTTTCGTAATGTACATAAAAAATGCAAAAA [XGTACX_site8491] | 7.14 |
| TATATATATATAACAACACACACAGATCATAAAACT [CACACA_site8670] | 8.9 |
| ATTATATAATTTAATCGTACACAAATATTTGTTAGT [XGTACX_site5913] | 6.79 |
| AGTATTCATAAAAATACACACATGGAAAAATAAAAT [CACACA_site1454] | 6.88 |
| AGCAAAAAAAAAAAAAAAAAAAAAATAATAAAAAAT [TGCATGCA_negctrl_site202] | 6.01 |
| ATATATATATAATAAGTGCAAAAAAAAGAAAAAAAT | 9.3 |
| GTTTTCTAGTGGGGGTGTACATATTTATATTTAATA [XGTACX_site8378] | 9.48 |
| TTTTTTTTTTTTGAGGTGCATATATCAGATCAATAT | 9.21 |
| CATATATTAATATGTACACACATTAATAAAAAAAAA [CACACA_site7504] | 6.24 |
| TCAAGAGTTATATAAACACACATACATACAGACATA [CACACA_site6998] | 6.88 |
| AAAAAAAAAAAAAAAAAAAAAAAAAAAAAAAAAAAG [CACACA_negctrl_site292] | 7.6 |
| ATTGTGGATATTCTTACACACAAATTTATTTATAAA [CACACA_site7267] | 6.05 |
| TAAGAAATTGAGCGCACACATACATCTGTGGGATGG [CACACA_site1548] | 6.81 |
| ATGTAAATATTTTGTATGCACTTTGATGCATCTTTT | 8.08 |
| TTTTTTTCTTCTTTTCTCTTAAAAATATTGAATATT [CACACA_negctrl_site1762] | 6.28 |
| AAATAAAATAAAATACGTACCTATTGTGCGTATTAA [XGTACX_site2912] | 7.52 |
| ATTTTAACTCCCCTTAATCTATTGTATATATATATA [CACACA_negctrl_site208] | 8.84 |
| AATAATTTCCAAAAATGTACATATATTTACATATAT [XGTACX_site1790] | 6.32 |
| TAATAAATGTTATTAGTGCATAATAGATAATATATT | 9.6 |

| Sequence | gcPBM binding intensity (ln) |
| --- | --- |
| TATTCGAACAAAAATACATGCACATATGCATAATAA [TGCATGCA_site171] | 10 |
| TTTTCCAGTAAATATTTTTTTATAATATTTATATAT [CACACA_negctrl_site387] | 6.36 |
| AGCCACTTAAAATACACACACACCAAAAAAAAAAAA [CACACA_site5497] | 6.84 |
| TATTTTATTTATTGAAGTACATTATACAAAAATAAA [XGTACX_site4824] | 6.3 |
| TACATATATATAATATGTACTTATAATATGTATTTA [XGTACX_site2162] | 5.96 |
| TTATTTGTTTGTTGGATGCTTTTTTTTTTTTTTTTT [CACACA_negctrl_site1697] | 6.59 |
| AAAAGTGATAATAAGAGTACATAAAAAATTTATTAT [XGTACX_site8037] | 6.31 |
| ATTTCCCACTTGTGTGTGCGCATGTGTATATATTTA [GTGCAC_site9949] | 7.35 |
| TATTCTATACTATATTGTACTATAATATAATATACT [XGTACX_site797] | 6.45 |
| AATGAAAAAAAAAAAAAAAAGAAGAAGCAAATGGTA [TGCATGCA_negctrl_site335] | 6.55 |
| ATAAATAATTATATATGTACACATTATGAATGGATA [XGTACX_site8336] | 6.74 |
| AGATTATTTGGACATGCATGTAAAAAAATACGTATA [TGCATGCA_site972] | 6.73 |
| TCTTCATATGTTTACTGTACGAGAAAAAAAAAAAAA [XGTACX_site6418] | 6.8 |
| TATGTGTATTTATTTGCATGTTGGTTGTATTTTTTC [TGCATGCA_site479] | 6.94 |
| TAATAAAATAAAAATTGTACATTTTATATTTATCAA [XGTACX_site5134] | 6.1 |
| TAGAAACCATAAAAATGTACTTAAAAATAGACAATT [XGTACX_site5007] | 6.1 |
| TCTGAAATTTTAGGGGTGCCTGGGACTAAAGAAACG [GTGCAC_site9785] | 6.23 |
| AAGAACAGATAAAATCGTACGTGAAACATGAACTTG [XGTACX_site7793] | 6.34 |
| ATACATAAATATTATTGTACATATATAATATTAATA [XGTACX_site3514] | 6.23 |
| TTTAATTCCCATATATGTACACAATTTCTTCTATAA [XGTACX_site1465] | 6.9 |
| AGACTTTTTATGAGCACACACATATATTATGGAGTA [CACACA_site1040] | 7.19 |
| ATAAATTCATTATATTGTACAAACAAATGAAAAAAA [XGTACX_site8304] | 6.5 |
| AAAATTCATCCAACAAGTACATAAATATAATATTAT [XGTACX_site4596] | 6.51 |

| Sequence | gcPBM binding intensity (ln) |
| --- | --- |
| AAAATATTTAAGCATTGTACATATTTTTACAAATAC [XGTACX_site5349] | 6.22 |
| GGAAAAAGAAATTAATGTACATGTGGATGTATGAGG [XGTACX_site5468] | 6.58 |
| CTACACAAGCATTAAACACACAAAAGGGATACTTTG [CACACA_site1083] | 6.55 |
| ATTCAAAAAAATAAAATAAACATAAATAAACATAAA [TGCATGCA_negctrl_site390] | 6.79 |
| ATTTTTACTTTTTATGCATGCTATATTTTCAACCAT [TGCATGCA_site871] | 7.45 |
| ATTTTTTTTTTTTTATGTACATATTAAAAAAAATAT [XGTACX_site1829] | 6.46 |
| GGTATTACTTTTAGCTGTACTTATTTAAAAGTCAAA [XGTACX_site530] | 6.51 |
| TATACATGTTCAATTTGTACATATATAAATATATAT [XGTACX_site3554] | 6.46 |
| ATTAAGGAAAAATTATGTACACAAAAACATATAACA [XGTACX_site2901] | 7.51 |
| TTTTTTTTTTGATGTTGTACATATATATTATATATA [XGTACX_site6377] | 6.58 |
| TTTTTTTTTTTTTTTTGTACATATTTTTAAACTATA [XGTACX_site2897] | 6.24 |
| AGATATATGGACGACTCACACATTTAAATTCATTCA [CACACA_site6047] | 6.59 |
| CTTTCATATGTTTTAACACACACGCATATATTATAT [CACACA_site8615] | 7.38 |
| TTTTTTTTTTTGATTTGTACACAAAAAAAATATATG [XGTACX_site4547] | 6.24 |
| ATCTATGATATATACACACACATGTATAAATAAATA [CACACA_site7012] | 6.51 |
| TAATTTTTTTTTCTTGTACACACTATTTTATAATTT [CACACA_site4078] | 6.68 |
| ATTTATTTGTTTGTTTTTTTTACGATTTTTATTTTT [CACACA_negctrl_site1138] | 6.7 |
| CGTATTTATATAATTACACACCATATTTTAATTATT [CACACA_site5960] | 6.66 |
| ATAAACAATTAACAAACATGCAAATTTTAAATGTGT [TGCATGCA_site919] | 6.42 |
| TATCGAGCACGGCGTGTGGAGTTACAAAGAGGAGAA [CACACA_negctrl_site40] | 6.86 |
| AAATGTATAATATTTTCACACACAAGAAAAAAGAAA [CACACA_site9195] | 6.57 |
| GCCAATAAAGATGTGGTGCATTATATATATATATAT | 10.7 |
| TAAAAATAGTATACAACACACGAGGGAAAATAAAGT [CACACA_site3837] | 7.68 |

| Sequence | gcPBM binding intensity (ln) |
| --- | --- |
| TAAACATACATATACACACACACACCCACACCCACA [CACACA_site492] | 6.77 |
| TGTCCTTATGGGCACACACACATATAAGAAATTTAA [CACACA_site3187] | 6.53 |
| CTTCTTATTTTCTAATGTACGTACAAATCATTTATA [XGTACX_site2176] | 7.28 |
| ATATTTATATATATGTGTACATATAGAAACATAAAA [XGTACX_site4355] | 6.38 |
| TTTTTTTTTTTAATTTGTACGAATCTTTTTATTTTA [XGTACX_site4516] | 6.25 |
| AGAAATGAAATATACACACATACATATATACATATA [CACACA_site4033] | 6.5 |
| ACCCTCATATTATAGACACACACAAAAAAAATAAAA [CACACA_site7941] | 6.66 |
| ATTAATAATGAGTTATGTACATACATATTTTAAGAT [XGTACX_site7543] | 6.75 |
| TAAATACACCCTAGACGTACATAAAAATTTAGTATG [XGTACX_site2512] | 6.37 |
| CAAAATATATATACCACACACACATACCTCTATTTG [CACACA_site1853] | 6.78 |
| ATATATTTTTTCTTAACACACATATATAAAATAAAA [CACACA_site3500] | 6.42 |
| CACGCGAACATACATACACACACATATATATATATG [CACACA_site7951] | 7.18 |
| TATATATATATATACACACACACACCGATATATATA [CACACA_site8813] | 9.29 |
| TATATAAAAAAACAAAGTACATGTTCTTAATCATTT [XGTACX_site8446] | 6.31 |
| AAATGAACAAGTGGCACACACACATCATAACTAATT [CACACA_site5730] | 6.52 |
| ATAATATAAATATGCACACAAATTATTACCCAAAAA [CACACA_site2524] | 9.6 |
| GTTATATTCCTACAGAGTACATAAAAATGCACATCA [XGTACX_site1948] | 9.23 |
| AAATATAATATATGCACACATACATACAGATATATA [CACACA_site4235] | 9.5 |
| ATAAATATAGGACACACACACATATTATATATATAT [CACACA_site5658] | 8.53 |
| TATTTCATGATACAATGTACATGTATATATGATACC [XGTACX_site5057] | 6.64 |
